# Experimental data from ChEMBL document CHEMBL1961873, “Compounds: GSK PKIS; Assays: Nanosyn kinase panel” (2012).
# For some of these results: What follows is the remainder of the data, with few or none of the strong results. The entries are a selection whose mix differs from that of the whole data set.
# What was measured:
# [1] = biological target: T1, Ephrin type-B receptor 2 (Homo sapiens) (UniProt P29323); conditions: at 1 µM
# T1 sequence (whole entry): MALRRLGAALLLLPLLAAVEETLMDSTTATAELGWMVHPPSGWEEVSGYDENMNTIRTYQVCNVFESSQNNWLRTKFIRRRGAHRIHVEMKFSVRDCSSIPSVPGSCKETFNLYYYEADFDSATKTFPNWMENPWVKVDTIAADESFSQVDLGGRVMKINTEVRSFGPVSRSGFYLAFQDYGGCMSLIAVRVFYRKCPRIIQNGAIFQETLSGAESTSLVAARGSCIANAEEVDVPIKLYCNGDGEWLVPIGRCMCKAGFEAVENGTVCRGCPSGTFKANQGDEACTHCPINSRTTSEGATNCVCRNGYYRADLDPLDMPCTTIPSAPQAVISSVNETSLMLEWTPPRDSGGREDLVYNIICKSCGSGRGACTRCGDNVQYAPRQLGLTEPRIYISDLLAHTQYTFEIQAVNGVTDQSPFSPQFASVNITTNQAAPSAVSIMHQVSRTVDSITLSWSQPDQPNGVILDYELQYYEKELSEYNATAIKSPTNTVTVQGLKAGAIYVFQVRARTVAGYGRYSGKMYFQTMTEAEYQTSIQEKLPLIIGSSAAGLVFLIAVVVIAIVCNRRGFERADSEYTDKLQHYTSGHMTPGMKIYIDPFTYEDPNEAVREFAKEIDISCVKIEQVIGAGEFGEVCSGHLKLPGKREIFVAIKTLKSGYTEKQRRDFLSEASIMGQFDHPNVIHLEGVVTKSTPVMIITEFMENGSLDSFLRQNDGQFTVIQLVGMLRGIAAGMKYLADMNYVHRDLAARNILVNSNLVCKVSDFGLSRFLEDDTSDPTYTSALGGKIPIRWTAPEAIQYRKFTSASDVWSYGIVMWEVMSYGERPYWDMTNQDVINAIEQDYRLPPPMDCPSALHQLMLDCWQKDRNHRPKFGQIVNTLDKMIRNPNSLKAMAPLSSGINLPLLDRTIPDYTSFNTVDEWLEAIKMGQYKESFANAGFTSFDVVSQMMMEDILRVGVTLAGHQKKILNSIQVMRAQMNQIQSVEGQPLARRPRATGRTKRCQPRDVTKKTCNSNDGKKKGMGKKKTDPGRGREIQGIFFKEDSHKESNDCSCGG
# [2] = biological target: T2, Ephrin type-B receptor 3 (Homo sapiens) (UniProt P54753); conditions: at 0.1 µM
# T2 sequence (whole entry): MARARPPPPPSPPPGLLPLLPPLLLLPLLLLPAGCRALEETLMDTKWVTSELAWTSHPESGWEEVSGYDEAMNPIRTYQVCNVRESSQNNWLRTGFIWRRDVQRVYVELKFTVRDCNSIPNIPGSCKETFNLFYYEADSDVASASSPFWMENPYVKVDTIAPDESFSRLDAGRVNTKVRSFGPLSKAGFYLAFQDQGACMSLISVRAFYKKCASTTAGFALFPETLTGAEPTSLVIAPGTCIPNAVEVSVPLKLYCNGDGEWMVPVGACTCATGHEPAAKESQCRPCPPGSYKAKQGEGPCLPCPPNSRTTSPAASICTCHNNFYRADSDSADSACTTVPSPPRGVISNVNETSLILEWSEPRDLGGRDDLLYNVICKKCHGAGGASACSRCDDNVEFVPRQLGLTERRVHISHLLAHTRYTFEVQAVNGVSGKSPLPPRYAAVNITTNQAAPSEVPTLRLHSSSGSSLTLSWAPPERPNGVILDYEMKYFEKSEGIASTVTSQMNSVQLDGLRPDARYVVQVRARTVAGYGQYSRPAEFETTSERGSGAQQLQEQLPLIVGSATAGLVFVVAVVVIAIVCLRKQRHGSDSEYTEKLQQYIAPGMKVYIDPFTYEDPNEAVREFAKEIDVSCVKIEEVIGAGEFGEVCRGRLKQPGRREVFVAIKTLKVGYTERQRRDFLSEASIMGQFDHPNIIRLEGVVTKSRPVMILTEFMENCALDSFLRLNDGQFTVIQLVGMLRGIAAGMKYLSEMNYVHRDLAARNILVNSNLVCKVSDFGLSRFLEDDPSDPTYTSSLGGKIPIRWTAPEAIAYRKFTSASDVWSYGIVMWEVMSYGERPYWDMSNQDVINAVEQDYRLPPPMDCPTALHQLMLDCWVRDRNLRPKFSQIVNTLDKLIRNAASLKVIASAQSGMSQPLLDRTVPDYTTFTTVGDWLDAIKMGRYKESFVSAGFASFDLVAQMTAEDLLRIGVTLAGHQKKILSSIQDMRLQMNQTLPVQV
# [3] = biological target: T2, Ephrin type-B receptor 3 (Homo sapiens); conditions: at 1 µM
# [4] = biological target: T3, Ephrin type-B receptor 4 (Homo sapiens) (UniProt P54760); conditions: at 0.1 µM
# T3 sequence (whole entry): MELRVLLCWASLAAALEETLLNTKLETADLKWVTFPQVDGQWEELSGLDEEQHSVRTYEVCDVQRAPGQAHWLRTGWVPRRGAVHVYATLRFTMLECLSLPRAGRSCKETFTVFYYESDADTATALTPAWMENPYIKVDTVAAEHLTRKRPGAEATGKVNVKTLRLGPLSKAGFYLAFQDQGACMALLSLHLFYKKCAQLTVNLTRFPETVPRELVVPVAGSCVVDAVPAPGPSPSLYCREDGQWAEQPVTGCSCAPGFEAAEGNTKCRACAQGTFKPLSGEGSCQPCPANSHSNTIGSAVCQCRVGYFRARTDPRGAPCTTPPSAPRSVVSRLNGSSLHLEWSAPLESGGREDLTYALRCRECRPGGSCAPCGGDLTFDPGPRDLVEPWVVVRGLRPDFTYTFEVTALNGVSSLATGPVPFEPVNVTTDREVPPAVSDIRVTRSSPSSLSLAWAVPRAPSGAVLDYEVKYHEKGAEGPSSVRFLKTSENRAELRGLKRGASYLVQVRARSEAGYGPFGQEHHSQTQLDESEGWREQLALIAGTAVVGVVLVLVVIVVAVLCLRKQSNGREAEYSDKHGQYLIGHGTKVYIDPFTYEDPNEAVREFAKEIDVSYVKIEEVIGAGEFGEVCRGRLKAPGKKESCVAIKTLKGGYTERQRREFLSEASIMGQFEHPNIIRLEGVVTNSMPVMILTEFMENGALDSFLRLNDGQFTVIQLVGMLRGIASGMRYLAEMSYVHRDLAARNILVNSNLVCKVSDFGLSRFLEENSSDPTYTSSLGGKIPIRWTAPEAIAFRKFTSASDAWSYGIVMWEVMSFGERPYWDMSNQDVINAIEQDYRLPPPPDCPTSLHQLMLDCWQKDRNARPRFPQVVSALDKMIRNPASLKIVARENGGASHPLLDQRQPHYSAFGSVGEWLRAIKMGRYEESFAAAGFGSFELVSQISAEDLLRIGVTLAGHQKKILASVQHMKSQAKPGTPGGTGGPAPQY
# [5] = biological target: T3, Ephrin type-B receptor 4 (Homo sapiens); conditions: at 1 µM
# [6] = biological target: Receptor tyrosine-protein kinase erbB-2 (Homo sapiens) (UniProt P04626); conditions: at 1 µM
# Sequence of UniProt P04626 (P04626 whole entry): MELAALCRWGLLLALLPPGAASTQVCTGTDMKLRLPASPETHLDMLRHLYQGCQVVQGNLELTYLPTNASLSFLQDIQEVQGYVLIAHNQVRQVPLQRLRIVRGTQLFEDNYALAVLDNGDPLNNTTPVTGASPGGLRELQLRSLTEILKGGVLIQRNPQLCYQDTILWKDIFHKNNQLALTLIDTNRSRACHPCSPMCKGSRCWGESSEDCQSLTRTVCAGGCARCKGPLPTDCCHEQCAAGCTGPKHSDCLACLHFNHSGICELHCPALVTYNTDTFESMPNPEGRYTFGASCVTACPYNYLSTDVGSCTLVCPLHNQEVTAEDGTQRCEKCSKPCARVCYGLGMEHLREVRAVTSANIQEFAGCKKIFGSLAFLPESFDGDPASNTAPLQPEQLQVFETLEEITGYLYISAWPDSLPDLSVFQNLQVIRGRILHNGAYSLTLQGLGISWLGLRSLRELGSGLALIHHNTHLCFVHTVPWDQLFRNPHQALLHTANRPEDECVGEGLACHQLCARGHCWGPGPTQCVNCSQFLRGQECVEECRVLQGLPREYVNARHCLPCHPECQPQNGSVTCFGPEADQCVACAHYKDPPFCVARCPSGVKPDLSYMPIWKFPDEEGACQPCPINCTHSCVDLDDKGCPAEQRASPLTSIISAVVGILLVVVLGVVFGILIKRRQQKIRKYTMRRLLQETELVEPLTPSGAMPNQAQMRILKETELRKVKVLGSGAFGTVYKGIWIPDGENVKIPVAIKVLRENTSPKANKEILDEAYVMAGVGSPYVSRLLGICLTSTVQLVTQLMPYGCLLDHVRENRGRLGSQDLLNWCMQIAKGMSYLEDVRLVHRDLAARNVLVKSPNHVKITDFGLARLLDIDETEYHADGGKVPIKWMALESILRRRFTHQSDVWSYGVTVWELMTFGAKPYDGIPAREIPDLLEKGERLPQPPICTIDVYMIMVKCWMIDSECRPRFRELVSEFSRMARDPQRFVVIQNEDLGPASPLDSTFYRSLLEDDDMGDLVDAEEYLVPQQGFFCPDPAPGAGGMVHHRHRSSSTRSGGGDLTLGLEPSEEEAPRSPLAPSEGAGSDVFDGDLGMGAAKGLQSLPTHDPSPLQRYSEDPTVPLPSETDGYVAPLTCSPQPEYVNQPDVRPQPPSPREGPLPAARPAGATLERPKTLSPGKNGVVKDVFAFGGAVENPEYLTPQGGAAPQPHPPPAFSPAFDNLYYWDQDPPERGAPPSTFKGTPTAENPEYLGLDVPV
# [7] = biological target: Receptor tyrosine-protein kinase erbB-4 (Homo sapiens) (UniProt Q15303); conditions: at 0.1 µM
# [8] = biological target: Receptor tyrosine-protein kinase erbB-4 (Homo sapiens) (UniProt Q15303); conditions: at 1 µM
# [9] = biological target: Tyrosine-protein kinase Fer (Homo sapiens) (UniProt P16591); conditions: at 0.1 µM
# Sequence of UniProt P16591 (P16591 whole entry, looked up): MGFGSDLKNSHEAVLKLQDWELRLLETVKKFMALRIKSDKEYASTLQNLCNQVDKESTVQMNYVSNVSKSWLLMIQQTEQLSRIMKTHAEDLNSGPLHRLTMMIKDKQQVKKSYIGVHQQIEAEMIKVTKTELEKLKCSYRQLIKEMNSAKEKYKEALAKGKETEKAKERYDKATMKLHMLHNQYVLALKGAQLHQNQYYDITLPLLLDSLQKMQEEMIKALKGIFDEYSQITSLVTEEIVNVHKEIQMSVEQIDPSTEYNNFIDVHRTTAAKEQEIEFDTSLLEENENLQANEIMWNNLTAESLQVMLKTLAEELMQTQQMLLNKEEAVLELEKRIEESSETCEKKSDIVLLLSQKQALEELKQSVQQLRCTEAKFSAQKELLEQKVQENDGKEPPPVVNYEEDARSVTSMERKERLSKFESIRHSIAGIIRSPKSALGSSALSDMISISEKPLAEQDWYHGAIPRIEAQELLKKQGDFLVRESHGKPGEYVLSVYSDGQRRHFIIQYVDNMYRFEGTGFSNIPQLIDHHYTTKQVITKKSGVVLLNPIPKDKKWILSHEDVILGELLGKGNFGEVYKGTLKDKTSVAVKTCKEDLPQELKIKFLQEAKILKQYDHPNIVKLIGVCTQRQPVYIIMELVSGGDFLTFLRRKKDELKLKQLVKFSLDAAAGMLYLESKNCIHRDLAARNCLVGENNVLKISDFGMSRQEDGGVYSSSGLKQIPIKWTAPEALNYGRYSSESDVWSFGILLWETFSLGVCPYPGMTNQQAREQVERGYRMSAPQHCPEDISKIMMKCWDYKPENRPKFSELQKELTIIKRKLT
# [10] = biological target: Tyrosine-protein kinase Fer (Homo sapiens) (UniProt P16591); conditions: at 1 µM
# [11] = biological target: Tyrosine-protein kinase Fes/Fps (Homo sapiens) (UniProt P07332); conditions: at 0.1 µM
# [12] = biological target: Tyrosine-protein kinase Fes/Fps (Homo sapiens) (UniProt P07332); conditions: at 1 µM
# [13] = biological target: Fibroblast growth factor receptor 1 (Homo sapiens) (UniProt P11362); conditions: at 0.1 µM
# Sequence of UniProt P11362 (P11362 whole entry, looked up): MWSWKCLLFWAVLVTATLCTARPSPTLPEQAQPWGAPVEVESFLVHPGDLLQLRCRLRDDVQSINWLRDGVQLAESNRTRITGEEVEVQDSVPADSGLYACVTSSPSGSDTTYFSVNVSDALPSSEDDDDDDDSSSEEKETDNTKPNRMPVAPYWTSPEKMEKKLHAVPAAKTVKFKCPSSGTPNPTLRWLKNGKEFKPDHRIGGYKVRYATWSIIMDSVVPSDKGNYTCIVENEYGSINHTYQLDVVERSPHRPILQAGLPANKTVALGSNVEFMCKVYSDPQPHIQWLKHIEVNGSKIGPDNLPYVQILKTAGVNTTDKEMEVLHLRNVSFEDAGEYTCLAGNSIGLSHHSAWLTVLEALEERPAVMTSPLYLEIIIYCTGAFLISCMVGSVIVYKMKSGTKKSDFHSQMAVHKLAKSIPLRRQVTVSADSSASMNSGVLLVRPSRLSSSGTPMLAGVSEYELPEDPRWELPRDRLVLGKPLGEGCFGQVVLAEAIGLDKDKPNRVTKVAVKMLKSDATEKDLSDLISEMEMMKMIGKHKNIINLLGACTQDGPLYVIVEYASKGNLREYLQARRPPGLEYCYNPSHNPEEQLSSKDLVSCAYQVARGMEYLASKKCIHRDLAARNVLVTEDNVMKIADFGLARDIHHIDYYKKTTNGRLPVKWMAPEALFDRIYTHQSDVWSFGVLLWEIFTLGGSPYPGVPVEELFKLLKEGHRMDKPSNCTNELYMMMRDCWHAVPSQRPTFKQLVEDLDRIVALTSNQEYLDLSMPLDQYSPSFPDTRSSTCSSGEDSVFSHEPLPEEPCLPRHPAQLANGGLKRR
# [14] = biological target: Fibroblast growth factor receptor 1 (Homo sapiens) (UniProt P11362); conditions: at 1 µM
# [15] = biological target: Fibroblast growth factor receptor 2 (Homo sapiens) (UniProt P21802); conditions: at 0.1 µM
# [16] = biological target: Fibroblast growth factor receptor 2 (Homo sapiens) (UniProt P21802); conditions: at 1 µM
# [17] = biological target: Fibroblast growth factor receptor 3 (Homo sapiens) (UniProt P22607); conditions: at 0.1 µM
# Sequence of UniProt P22607 (P22607 whole entry, looked up): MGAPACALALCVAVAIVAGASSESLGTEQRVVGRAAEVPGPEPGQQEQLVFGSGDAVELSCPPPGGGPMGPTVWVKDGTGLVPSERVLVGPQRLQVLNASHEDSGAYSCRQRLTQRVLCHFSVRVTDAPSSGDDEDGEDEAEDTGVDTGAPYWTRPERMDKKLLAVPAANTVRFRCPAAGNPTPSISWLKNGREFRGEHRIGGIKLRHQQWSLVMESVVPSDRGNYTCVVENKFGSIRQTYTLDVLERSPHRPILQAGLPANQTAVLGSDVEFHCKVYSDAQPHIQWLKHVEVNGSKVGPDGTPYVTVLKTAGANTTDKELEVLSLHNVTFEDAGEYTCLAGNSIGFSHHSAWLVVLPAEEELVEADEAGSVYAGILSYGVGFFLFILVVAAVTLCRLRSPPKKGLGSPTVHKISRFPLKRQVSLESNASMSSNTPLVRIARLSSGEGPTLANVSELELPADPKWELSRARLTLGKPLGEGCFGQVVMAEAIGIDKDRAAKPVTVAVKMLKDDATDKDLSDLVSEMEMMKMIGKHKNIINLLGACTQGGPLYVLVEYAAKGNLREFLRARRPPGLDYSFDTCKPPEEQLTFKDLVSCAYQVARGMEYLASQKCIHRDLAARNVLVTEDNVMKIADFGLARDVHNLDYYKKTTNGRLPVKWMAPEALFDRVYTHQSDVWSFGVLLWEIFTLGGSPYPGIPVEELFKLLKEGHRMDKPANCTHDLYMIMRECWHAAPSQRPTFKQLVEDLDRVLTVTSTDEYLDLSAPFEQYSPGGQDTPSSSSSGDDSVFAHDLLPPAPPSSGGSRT
# [18] = biological target: Fibroblast growth factor receptor 3 (Homo sapiens) (UniProt P22607); conditions: at 1 µM
# [19] = biological target: Fibroblast growth factor receptor 4 (Homo sapiens) (UniProt P22455); conditions: at 0.1 µM;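 also: values are mean percent inhibition of FGFR4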
# Sequence of UniProt P22455 (P22455 whole entry, looked up): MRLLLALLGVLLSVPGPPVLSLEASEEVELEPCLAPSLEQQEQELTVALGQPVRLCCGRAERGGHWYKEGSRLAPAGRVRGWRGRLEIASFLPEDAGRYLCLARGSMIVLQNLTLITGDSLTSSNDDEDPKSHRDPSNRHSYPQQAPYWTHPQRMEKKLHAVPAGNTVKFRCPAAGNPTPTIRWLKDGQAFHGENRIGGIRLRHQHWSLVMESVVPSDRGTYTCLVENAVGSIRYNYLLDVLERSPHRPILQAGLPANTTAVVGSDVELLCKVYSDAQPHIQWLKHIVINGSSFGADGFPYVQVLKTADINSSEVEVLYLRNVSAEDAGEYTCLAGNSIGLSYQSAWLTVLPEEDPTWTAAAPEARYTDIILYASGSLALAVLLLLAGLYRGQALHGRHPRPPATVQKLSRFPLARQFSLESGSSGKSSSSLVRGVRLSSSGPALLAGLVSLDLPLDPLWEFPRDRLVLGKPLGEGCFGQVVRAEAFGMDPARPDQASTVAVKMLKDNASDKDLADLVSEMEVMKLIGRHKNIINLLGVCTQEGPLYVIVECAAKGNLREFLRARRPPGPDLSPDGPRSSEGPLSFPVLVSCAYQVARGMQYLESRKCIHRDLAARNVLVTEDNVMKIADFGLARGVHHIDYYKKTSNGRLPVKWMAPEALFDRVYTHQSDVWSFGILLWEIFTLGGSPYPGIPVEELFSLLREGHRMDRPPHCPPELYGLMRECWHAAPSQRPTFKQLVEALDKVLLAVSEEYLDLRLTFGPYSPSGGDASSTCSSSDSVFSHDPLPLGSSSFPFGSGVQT
# [20] = biological target: Receptor tyrosine-protein kinase erbB-2 (Homo sapiens) (UniProt P04626); conditions: at 0.1 µM
SMILES,inhibition [1] [%],inhibition [2] [%],inhibition [3] [%],inhibition [4] [%],inhibition [5] [%],inhibition [6] [%],inhibition [7] [%],inhibition [8] [%],inhibition [9] [%],inhibition [10] [%],inhibition [11] [%],inhibition [12] [%],inhibition [13] [%],inhibition [14] [%],inhibition [15] [%],inhibition [16] [%],inhibition [17] [%],inhibition [18] [%],inhibition [19] [%],inhibition [20] [%]
Fc1ccc(-c2ncn(C3CCNCC3)c2-c2ccnc(Oc3cccc(C(F)(F)F)c3)n2)cc1,10.6,2.85,4.25,0.96,3.51,5.77,10.8,14.1,3.02,3.43,5.02,4.61,6.49,5.84,7.58,11,6.99,7.98,-1.37,–
O=C(O)c1ccc(Oc2nccc(-c3c(-c4ccc(F)cc4)ncn3C3CCNCC3)n2)cc1,4.11,2.77,1.78,3.71,3.04,1.62,5.11,7.71,-2.55,1.31,3.23,4.78,3.77,6.13,9,8.13,10.4,8.63,3.16,1.34
Fc1ccc(-c2ncn(C3CCNCC3)c2-c2ccnc(Oc3ccc(Cl)cc3)n2)cc1,3.26,1,2.14,-0.37,1.29,5.43,6.98,9.2,3.95,9.05,-0.01,0.02,-5.16,-0.19,0.39,-0.95,0.88,-0.04,4.39,-0.24
COc1ccccc1C1=C(Nc2ccccc2)C(=O)NC1=O,12.2,5.54,3.76,2.58,2.07,2.5,7.55,10.4,4.62,10.2,2.63,3.59,3.4,2.56,1.53,6.4,5.26,3.74,0.3,2.04
O=C1NC(=O)C(c2cccc([N+](=O)[O-])c2)=C1Nc1cc(Cl)c(O)c(Cl)c1,0.02,1.61,3.06,-0.74,1.7,2.08,3.57,9.81,1.72,0.45,0.77,0.99,–,7.05,0.92,21.7,1.22,14.5,3.72,0.75
CC(C)(C)c1ccc(Oc2nccc(-c3c(-c4ccc(F)cc4)ncn3C3CCNCC3)n2)cc1,9.58,3.21,3.92,3.87,2.44,5.29,10.6,14.4,-1.13,0.49,3.94,3.31,-0.81,2.92,2.22,3.69,3.32,2.86,-1.97,5.85
O=C1NC(=O)C(c2ccccc2Cl)=C1Nc1cc(Cl)c(O)c(Cl)c1,8.53,3.21,2.6,1.31,0.98,5.37,7.33,9.17,2.57,4.57,2.25,3.17,-0.23,4.13,4.56,7.38,5.47,7.1,0.3,1.04
O=C1NC(=O)C(c2ccccc2)=C1Nc1ccccc1,11.6,6.33,3.76,3.88,3.24,2.79,10.9,24,3.66,6.31,3.21,4.15,4.96,8.84,10.4,8.86,7.7,9.46,-1.29,3.99
CS(=O)(=O)c1ccc(Oc2nccc(-c3c(-c4ccc(F)cc4)ncn3C3CCNCC3)n2)cc1,8.79,4.01,4.79,-0.15,2.72,5.1,8.15,12,2.29,4.41,4.3,1.79,-0.91,3.98,1.58,3.83,2.42,2.73,1.19,3.64
Cc1cccc(Oc2nccc(-c3c(-c4ccc(F)cc4)ncn3C3CCNCC3)n2)c1C,7.01,3.14,5.07,0.3,1.15,5.54,6.52,10.7,2.75,4.21,3.78,3.26,2.25,10.6,5.52,7.26,5.67,6.68,0.9,1.89
COc1ccccc1Oc1nccc(-c2c(-c3ccc(F)cc3)ncn2C2CCNCC2)n1,7.2,4,7.2,0.68,3.62,13.4,15.5,19.1,3.88,11.2,4,4.21,3.48,6.26,6.73,8.24,6.4,8.02,0.42,11.4
Fc1ccc(Oc2nccc(-c3c(-c4ccc(F)cc4)ncn3C3CCNCC3)n2)cc1,5.49,-0.03,-1.49,1.62,-1.46,1.8,-0.45,4.24,2.06,3.13,2.44,2.52,3.29,-2.94,5.52,0.13,4.38,5.03,-0.31,-1.05
NC(=O)CCc1ccccc1Oc1nccc(-c2c(-c3ccc(F)cc3)ncn2C2CCNCC2)n1,-1.73,-5.75,-2.65,-1.79,-1.48,-0.26,-3.86,-2.47,1.8,0.82,-1.56,-1.5,-2.59,-2.27,1.39,0.01,-1.2,-1.28,1.08,0.65
Fc1ccc(-c2ncn(C3CCNCC3)c2-c2ccnc(Oc3cccc(F)c3)n2)cc1,15.4,4.21,4.97,1.93,3.09,4.09,5,11.2,6.81,12.8,3.78,3.56,5.54,11,10.8,12.4,13.8,14.8,–,3.49
